Assay results reported in the RNAGym collection of RNA variant scans (doi:10.1073/pnas.2313332121).
Variants at the background level are over-represented here.

B1: TPR 5TU (parent)
chain: GGAUCUUCUCGAUCUAACAAAAAAGACAAAUCUGCCACAAAGCUUGAGAGCAUCUUCGGAUGCAGAGGCGGCAGCCUUCGGUGGCGCGAUAGCGCCAACGUUCUCAACUAUGACACGCAAAACGCGUGCUCCGUUGAAUGGAGUUUAUCAUG

Variants of: B1
Assay: polymerase ribozyme fitness, log enrichment relative to wild type (log ratio); higher = more active; in vitro selection for triplet polymerase activity
In short: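 Each subunit of a heterodimeric triplet polymerase ribozyme was represented by a PCR-built, transcribed mutant library that underwent triplicate single-round in vitro selection with frozen incubation at −7 °C. Extended constructs were recovered by gel excision, streptavidin-bead capture and RT-PCR, and Illumina sequencing of input and output libraries kept genotypes with ≥10 input reads and ≥1 read per output. Fitness is the logarithm of genotype enrichment relative to wild-type enrichment, from inverse-variance-weighted replicate averages, with a logarithm base of 2.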
With G42A A89U C93U G94C the “polymerase ribozyme fitness (log ratio)” value was no more than -4.2.
With A40G G42C C54A U82G G84A A98C the “polymerase ribozyme fitness (log ratio)” value was no more than -4.2.
With A41G U44A C51U C87U A106U A107G the “polymerase ribozyme fitness (log ratio)” value was no more than -4.2.
With C43U G50A C57G U77G C87U C96U C105G A107C C125G the “polymerase ribozyme fitness (log ratio)” value was no more than -4.2.
In the case of G42U U45A C87A A115G C149G, the “polymerase ribozyme fitness (log ratio)” value is reported as no more than -4.2.
In the case of A40G G50U C132G, the “polymerase ribozyme fitness (log ratio)” value is reported as no more than -4.2.
With C43U A89G C103A A113U A147C C149A the “polymerase ribozyme fitness (log ratio)” value was no more than -4.2.
With U44A G58A A91U C103U C116A A138C the “polymerase ribozyme fitness (log ratio)” value was no more than -4.2.
For U45A C75G C118G, the “polymerase ribozyme fitness (log ratio)” value was no more than -4.2.
With A41C A91U G92U A98G the “polymerase ribozyme fitness (log ratio)” value was no more than -4.2.
In the case of G42A U61G U78C G92C, the “polymerase ribozyme fitness (log ratio)” value is reported as no more than -4.2.
With A41C C95A C103G U144A the “polymerase ribozyme fitness (log ratio)” value was no more than -4.2.
With A41C G42A G92A A115G U151G the “polymerase ribozyme fitness (log ratio)” value was no more than -4.2.
For C43U A73U U90A C95U, the “polymerase ribozyme fitness (log ratio)” value was no more than -4.2.
With A41C A52U A73G C87U G141A the “polymerase ribozyme fitness (log ratio)” value was no more than -4.2.
In the case of C43U U44G C72A C93A C103A A142U C149G, the “polymerase ribozyme fitness (log ratio)” value is reported as no more than -4.2.
For A40U A66C G80A G92A A107U A110C A147U, the “polymerase ribozyme fitness (log ratio)” value was no more than -4.2.
In the case of C43A C75G U77G C85U A91U A97C C105U G112U, the “polymerase ribozyme fitness (log ratio)” value is reported as no more than -4.2.
With U44A C87A G100A U148A the “polymerase ribozyme fitness (log ratio)” value was no more than -4.2.
With G42C A49G A73G G83A G136C U144A the “polymerase ribozyme fitness (log ratio)” value was no more than -4.2.
In the case of G42U C57G A98U, the “polymerase ribozyme fitness (log ratio)” value is reported as no more than -4.2.
For U44A C63U A64U C87U U134G, the “polymerase ribozyme fitness (log ratio)” value was no more than -4.2.
For G42U C93G A107U, the “polymerase ribozyme fitness (log ratio)” value was no more than -4.2.
In the case of G42A C51U G80C C103G A106C C125U C132A, the “polymerase ribozyme fitness (log ratio)” value is reported as no more than -4.2.
For A40G A106G C118G U134G, the “polymerase ribozyme fitness (log ratio)” value was no more than -4.2.
In the case of G42C U45G G58U A91C C105U A122U, the “polymerase ribozyme fitness (log ratio)” value is reported as no more than -4.2.
With G42A A60C C85A C114U the “polymerase ribozyme fitness (log ratio)” value was no more than -4.2.
With A41U U44C G59A U145C the “polymerase ribozyme fitness (log ratio)” value was no more than -4.2.
With A40U C95U C99U C105A A106G A122C A138C G141A the “polymerase ribozyme fitness (log ratio)” value was no more than -4.2.
With G42U G71U the “polymerase ribozyme fitness (log ratio)” value was no more than -4.2.
With C43G C87U C116G G124U the “polymerase ribozyme fitness (log ratio)” value was no more than -4.2.
With C43U C54G C93G A142C the “polymerase ribozyme fitness (log ratio)” value was no more than -4.2.
With U44C G81A C93A the “polymerase ribozyme fitness (log ratio)” value was no more than -4.2.
With G42A A49C C54U A106C C114G G141C the “polymerase ribozyme fitness (log ratio)” value was no more than -4.2.
With G42C U55C G58C G94U A97C C103G A147U the “polymerase ribozyme fitness (log ratio)” value was no more than -4.2.
For C43A G59A U61A C85U C132U U139G U148A U151A, the “polymerase ribozyme fitness (log ratio)” value was no more than -4.2.
In the case of U44G G94A U101G G136A, the “polymerase ribozyme fitness (log ratio)” value is reported as no more than -4.2.
In the case of G42A C51G C76G C93U U104G C118U, the “polymerase ribozyme fitness (log ratio)” value is reported as no more than -4.2.
For U44G G68A G92C C116G, the “polymerase ribozyme fitness (log ratio)” value was no more than -4.2.
In the case of C43U G62A G92C A113G, the “polymerase ribozyme fitness (log ratio)” value is reported as no more than -4.2.
With G42A G50C C79A C93U the “polymerase ribozyme fitness (log ratio)” value was no more than -4.2.
For A41C G58U U77C C93G, the “polymerase ribozyme fitness (log ratio)” value was no more than -4.2.
For G42A A49U A73U A91C G124C G136U U148A A150G, the “polymerase ribozyme fitness (log ratio)” value was no more than -4.2.
In the case of C43A C76U G92U, the “polymerase ribozyme fitness (log ratio)” value is reported as no more than -4.2.
With A41U U55G U82G C96U A98C A138U the “polymerase ribozyme fitness (log ratio)” value was no more than -4.2.
In the case of U44C A60U C75U C76G A91G G94A A121G G141C, the “polymerase ribozyme fitness (log ratio)” value is reported as no more than -4.2.
In the case of A41U G42A C79G G83U U101C U148A A150U, the “polymerase ribozyme fitness (log ratio)” value is reported as no more than -4.2.
For G42A U56A A66U A73G C79U A115G A120U A121U A150C, the “polymerase ribozyme fitness (log ratio)” value was no more than -4.2.
In the case of A40C U55A G140U U148G, the “polymerase ribozyme fitness (log ratio)” value is reported as no more than -4.2.
For U45A C57A C99A C116U, the “polymerase ribozyme fitness (log ratio)” value was no more than -4.2.
In the case of G42U U45G C76A C85A C125U A147G, the “polymerase ribozyme fitness (log ratio)” value is reported as no more than -4.2.
In the case of G42A C57U A60C G84C C123G, the “polymerase ribozyme fitness (log ratio)” value is reported as no more than -4.2.
With U45A C108U the “polymerase ribozyme fitness (log ratio)” value was no more than -4.2.
For G42A C54G C95U, the “polymerase ribozyme fitness (log ratio)” value was no more than -4.2.
With G42A A52C C131G the “polymerase ribozyme fitness (log ratio)” value was no more than -4.2.
In the case of U44A U55A G92A C125U G141A U145C U146A, the “polymerase ribozyme fitness (log ratio)” value is reported as no more than -4.2.
For G42C G68U C93U C99G C131A, the “polymerase ribozyme fitness (log ratio)” value was no more than -4.2.
In the case of C43U G67U G84U A89U C116U U135G, the “polymerase ribozyme fitness (log ratio)” value is reported as no more than -4.2.
In the case of A40G A49G C69U U82A C103A C105A A107U C123A A137G U139G, the “polymerase ribozyme fitness (log ratio)” value is reported as no more than -4.2.
With G42C A47C G59A G81C C93A G94U the “polymerase ribozyme fitness (log ratio)” value was no more than -4.2.
In the case of U45A A52C C75U C79U C87A G126U, the “polymerase ribozyme fitness (log ratio)” value is reported as no more than -4.2.
With A41G U45A A64U C79U C99A A122G the “polymerase ribozyme fitness (log ratio)” value was no more than -4.2.
For C43U A66G G74C G126C U146C, the “polymerase ribozyme fitness (log ratio)” value was no more than -4.2.
In the case of G42U U78A, the “polymerase ribozyme fitness (log ratio)” value is reported as no more than -4.2.
With A41U A73G G83A U144G A150G the “polymerase ribozyme fitness (log ratio)” value was no more than -4.2.
With G42A G50A G71A G80U G94C C96U C105A U127A the “polymerase ribozyme fitness (log ratio)” value was no more than -4.2.
For G42A A49U A60G G124C, the “polymerase ribozyme fitness (log ratio)” value was no more than -4.2.
For C43U U45G A73G G84U C85A A110G G128A G141U U148G, the “polymerase ribozyme fitness (log ratio)” value was no more than -4.2.
With A41C G74A G84U C99G A119U U144C the “polymerase ribozyme fitness (log ratio)” value was no more than -4.2.
For A40G G67A C72U C96A U151A, the “polymerase ribozyme fitness (log ratio)” value was no more than -4.2.
In the case of A41G G83A C105A C132G A150U, the “polymerase ribozyme fitness (log ratio)” value is reported as no more than -4.2.
With G42U A49C A97G C99G G100C U134A the “polymerase ribozyme fitness (log ratio)” value was no more than -4.2.
For C43U C51U U55A G71A A91C G100A U109G A122U, the “polymerase ribozyme fitness (log ratio)” value was no more than -4.2.
With G42U G62C U104G G140A the “polymerase ribozyme fitness (log ratio)” value was no more than -4.2.
For A40G G46A G50C G70C C87U A138C, the “polymerase ribozyme fitness (log ratio)” value was no more than -4.2.
For A40G U82A G94C U134A U151A, the “polymerase ribozyme fitness (log ratio)” value was no more than -4.2.
In the case of U44A U55A C63A C105G, the “polymerase ribozyme fitness (log ratio)” value is reported as no more than -4.2.
In the case of C43G A91U C95A, the “polymerase ribozyme fitness (log ratio)” value is reported as no more than -4.2.
For U45A G50C C87A A107C C125G, the “polymerase ribozyme fitness (log ratio)” value was no more than -4.2.
For G42A C76U U82A C99U G136U, the “polymerase ribozyme fitness (log ratio)” value was no more than -4.2.
In the case of U44G A52U G65U C87U C93G, the “polymerase ribozyme fitness (log ratio)” value is reported as no more than -4.2.
With G42A G74A the “polymerase ribozyme fitness (log ratio)” value was no more than -4.2.
With A41G G71C G94A C108A A150C the “polymerase ribozyme fitness (log ratio)” value was no more than -4.2.
